Measured values: paper PMC12345631
Results are given in words; binding and its absence hold for the method and conditions named. In cells and extracts the contact can be indirect. Where a sequence is shown, tags or fusion partners need not be part of it.

Key:
Assay in all cases: co-IP; anti-Flag (M2) on Dynabeads Protein G, 1–2 h at 4°C; lysis in 50 mM HEPES pH 7.5, 150 mM NaCl, 1 mM EDTA, NP-40; washes with 0.2% NP-40; blot for HA; cells in YPD, YPL, SD or SL medium; wild-type or mkt1∆ background; CEN.PK and S288C
[1] = target: T1, Pbp1-4A (Flag-tagged) (S. cerevisiae) (UniProt P53297)
T1 sequence: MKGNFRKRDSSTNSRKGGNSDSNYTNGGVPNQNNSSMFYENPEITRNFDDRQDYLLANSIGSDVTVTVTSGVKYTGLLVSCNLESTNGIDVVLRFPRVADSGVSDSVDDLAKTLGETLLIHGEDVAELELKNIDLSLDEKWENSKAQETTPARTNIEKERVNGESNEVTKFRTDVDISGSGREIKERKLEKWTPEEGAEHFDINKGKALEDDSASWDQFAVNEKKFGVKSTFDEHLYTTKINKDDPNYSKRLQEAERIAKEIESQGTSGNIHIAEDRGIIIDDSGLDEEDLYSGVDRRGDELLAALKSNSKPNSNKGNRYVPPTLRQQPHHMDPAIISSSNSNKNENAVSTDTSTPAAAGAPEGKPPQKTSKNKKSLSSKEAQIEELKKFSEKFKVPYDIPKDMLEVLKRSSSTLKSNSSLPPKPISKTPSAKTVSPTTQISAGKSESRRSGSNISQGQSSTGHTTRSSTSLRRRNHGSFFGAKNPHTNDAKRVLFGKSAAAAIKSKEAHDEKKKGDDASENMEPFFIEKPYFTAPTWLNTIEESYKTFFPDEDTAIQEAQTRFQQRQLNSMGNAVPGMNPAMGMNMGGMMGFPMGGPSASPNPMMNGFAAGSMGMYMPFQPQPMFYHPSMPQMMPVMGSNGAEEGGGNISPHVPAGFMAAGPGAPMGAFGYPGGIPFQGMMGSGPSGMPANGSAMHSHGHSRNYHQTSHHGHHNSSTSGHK

[2] = target: T2, Pbp1Δ491-513 (Flag-tagged) (S. cerevisiae) (UniProt P53297)
T2 sequence: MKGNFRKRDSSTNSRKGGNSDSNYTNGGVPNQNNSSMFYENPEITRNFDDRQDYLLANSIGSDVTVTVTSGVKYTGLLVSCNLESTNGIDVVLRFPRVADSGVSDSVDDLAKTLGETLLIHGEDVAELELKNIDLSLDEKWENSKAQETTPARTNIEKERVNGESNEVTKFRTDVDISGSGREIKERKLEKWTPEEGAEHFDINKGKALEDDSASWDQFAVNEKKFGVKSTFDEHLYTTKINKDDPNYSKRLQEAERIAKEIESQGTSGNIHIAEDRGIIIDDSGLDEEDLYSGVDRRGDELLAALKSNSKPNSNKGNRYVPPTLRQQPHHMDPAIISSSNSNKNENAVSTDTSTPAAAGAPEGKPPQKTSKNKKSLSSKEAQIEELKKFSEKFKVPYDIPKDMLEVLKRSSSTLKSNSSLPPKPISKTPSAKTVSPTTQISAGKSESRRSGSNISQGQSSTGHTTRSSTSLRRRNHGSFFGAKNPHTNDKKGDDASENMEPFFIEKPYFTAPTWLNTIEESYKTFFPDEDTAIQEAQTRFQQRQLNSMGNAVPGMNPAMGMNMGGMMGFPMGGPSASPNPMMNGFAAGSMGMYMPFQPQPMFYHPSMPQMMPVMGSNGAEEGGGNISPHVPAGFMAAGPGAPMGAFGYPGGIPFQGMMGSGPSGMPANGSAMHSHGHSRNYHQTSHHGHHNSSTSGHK

[3] = target: T3, Pbp1Δ500-514 (Flag-tagged) (S. cerevisiae) (UniProt P53297)
T3 sequence: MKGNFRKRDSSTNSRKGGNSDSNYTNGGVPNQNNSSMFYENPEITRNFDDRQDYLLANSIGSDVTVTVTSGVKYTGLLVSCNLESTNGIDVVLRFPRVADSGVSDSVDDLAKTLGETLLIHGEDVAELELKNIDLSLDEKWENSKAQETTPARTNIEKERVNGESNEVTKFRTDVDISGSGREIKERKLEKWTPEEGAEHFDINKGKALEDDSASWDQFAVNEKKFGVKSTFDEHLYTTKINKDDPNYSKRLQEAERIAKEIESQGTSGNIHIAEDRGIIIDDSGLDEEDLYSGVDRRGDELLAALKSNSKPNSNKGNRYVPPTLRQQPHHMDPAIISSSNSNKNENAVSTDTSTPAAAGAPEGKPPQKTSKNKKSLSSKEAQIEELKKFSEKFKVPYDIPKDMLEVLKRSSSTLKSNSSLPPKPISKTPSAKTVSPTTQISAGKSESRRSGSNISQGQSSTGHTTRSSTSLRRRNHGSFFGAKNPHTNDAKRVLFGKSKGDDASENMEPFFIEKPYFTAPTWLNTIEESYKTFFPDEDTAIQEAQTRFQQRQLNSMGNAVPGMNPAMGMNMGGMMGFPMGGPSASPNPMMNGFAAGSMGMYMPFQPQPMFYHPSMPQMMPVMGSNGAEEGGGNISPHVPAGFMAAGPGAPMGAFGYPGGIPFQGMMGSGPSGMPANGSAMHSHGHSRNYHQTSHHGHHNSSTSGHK

Measured: binding

B1: Mkt1-HA (protein, UniProt P40850 1-830)
chain: MAIKSLESFLFERGLVGSYAIEALNNCTLGIDVNHYVSRLLTNKREQYLDAIGGFPTSLKMYLESDLKIFKDFNITPIFVFNGGLTYNQLEASGHFTAASASASISSTTTSSSGTNATTRSNTESVLLQRSRGWTQWNNLISSNQNSYIDQPIQPQEPFRHNTTIDSKAYQNDLIAYFIEHGYMYQVAPYSSWFQLAYLLNSAYIDAIYGPTDCLMLDCVDRFILGMEFPNKEFRFIDRSRVMKDLGCTHEEFIDIAMAVGNDLQPTTLPPLQIYPVPQLFDIALEMVLNTGTNFYAYQLSTTLQNDSKENIQNYQRGISALRYMPVLKDTGKVELFVQEIVVSEEDSEKNNKDGKKSNLSSPSSASSSASPATTVTKNASEKLTYEKSSTKEVRKPRDIPNDVHDFIGQMLPHEYYFYRSIGLVTGKLFDAIVTGVYPEEPPLGGGSSTSYRKLVSKSVEIFKNKEINLLTQPINRYYQIKQIKQVKWYAANEPTTLTNRMSPSMFETINHLIVKTETSDEKEFSISEFITTINGSSNMAKDFISEKVIFPNSVPIESKLNSPFNLLSTNFLRLLVLLEFFTFDFKEKLLEPTRWGEVFLKLNELNIDSKYHESVIIFLVFLKCDVLKLDEEVQPPAPSALSQATLRSYPEESLYVLLITRVLTLFQVDQKPSNYHGPIDKKTLIFRDHLSFIKENLNELFEAVLISSLTSGEFNRLSLDNFGWARKIVRYLPFKLDSPNTIMAMMWEFFLQKYLHNGNAKNDALSLVATEFNTYKSTPNLDEQFVESHRFLLEISKVMQELNAAKLIDENVFKLFTKAVEFTTTALSS
no binding: all assays above
